Data taken from the supplement of paper PMC11417369.
Some of the results follow.

system: PfAP2-HC AP2 domain (GST-tagged); experiment: gcPBM binding intensity (ln(normalized median fluorescence intensity)); higher = stronger DNA binding
Outline: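 In this array assay, P. falciparum DNA-binding domains with a GST tag, expressed in E. coli, were applied for 1 h to primer-extended double-stranded 36-bp intergenic genomic probes and negative controls on an Agilent 4 × 180k array. Bound protein was visualised with Alexa488 anti-GST antibody at 488 nm. Binding intensity is the highest Masliner-normalised natural-log median intensity across replicate spots of either probe orientation.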

Row | Sequence | gcPBM binding intensity (ln)
1 | ATATGTACAAATTATACACACATGTACAATTATATA [CACACA_site1253] | 9.84
2 | ATGTCACAATTTTTCACACACAAAATTTATATACAT [CACACA_site2030] | 10.1
3 | TATGTTTCTATATATACATGCAAGAAGAAATGTACT [TGCATGCA_site891] | 9.54
4 | CAAAAGGATAGGCACACACACACACCGATATATATA [CACACA_site8685] | 10.7
5 | GAATATTAATTCAAGTGTACAAATATATATATAATT [XGTACX_site5103] | 9.73
6 | GTTAATATTTTTGGGGGTACTTAAAAAAAAAAAAAA [XGTACX_site1477] | 9.39
7 | AATTTAAAAAATAATTGTACAAAAAAAAAAAATCAG [XGTACX_site4576] | 9.78
8 | TTACATACAATTGGTGTGCACATATATATATATATA | 9.89
9 | TATGTTTTTGAATGAGTGCATTAAAATAAAACATTT | 9.53
10 | TTCTTGTATATTCATAGTACATATAATGTCGTGTTA [XGTACX_site8991] | 9.79
11 | ATAATATAAATATACACACACACATATATATATATA [CACACA_site2905] | 10.8
12 | TAATAAGGAATTTATAGTACATATTCATATGTTTTA [XGTACX_site2331] | 9.44
13 | ATAAAAATTTATATATGTACTTAATTTTTAATTTTT [XGTACX_site7482] | 9.54
14 | AAAAAAAAAAAAAACACACACACACGCATACACATA [CACACA_site7364] | 10.7
15 | AAGAGGATACACAATGTGCACTTTTTTTTTTTTTTT [GTGCAC_site9415] | 9.63
16 | TATACAGATATATATACACACATATATATAAATACA [CACACA_site4383] | 9.97
17 | ATAAATAAAACAAATAGTACAATATAAAAAAAAAGG [XGTACX_site87] | 10.1
18 | TATATATATAATATATGTACTCATATTAAGAGATAC [XGTACX_site1354] | 9.57
19 | TATATATGTATATTTTGTACGTATTTATTTACATGA [XGTACX_site4584] | 9.68
20 | AATGAGCTTTTTAAAAGTACTAAATATAAATAAATA [XGTACX_site3632] | 9.5
21 | TATATTTATACTTATACACACATTATTGAATTAACC [CACACA_site934] | 9.78
22 | ATTATTTATATTTGGAGTACTTATAATATTTTTATA [XGTACX_site1289] | 9.63
23 | TATAGGTATTTGTATACACACAAATGTATATATCTA [CACACA_site6713] | 9.74

Row | Sequence | gcPBM binding intensity (ln)
24 | AGTGTAAGCTAAGTGGTGCGTTGAATAAGGTTTTTT [GTGCAC_site9951] | 9.65
25 | AAAATATTTATTCCTAGTACTTACCATTATATATAT [XGTACX_site363] | 9.74
26 | AAAAAAAAATGAAAAGAAAAAAAAAGAAAAAAGGGA [CACACA_negctrl_site287] | 9.72
27 | CTTTATATATTTTATTGTACTTAAAAAAAAAAAAAA [XGTACX_site2134] | 9.15
28 | AAAAAATATGCATATACACACATATGTATAAATAAC [CACACA_site7090] | 10.1
29 | TCTTTGGTATTTACATGTACATATTCTTAAAAACAT [XGTACX_site3124] | 9.88
30 | TGTATAGTCTAAAGTTGTACAAAAAAAAAAAAAAAA [XGTACX_site5764] | 9.31
31 | GAAAATAAAATATTAGTGCATTATTTGATCAATAAT | 9.56
32 | AATAGTTGCTAAAGGTGTACAATACATTTATTAGAA [XGTACX_site2773] | 9.8
33 | TATTACTTAAATAAAAGTACATATAACATTTTAGTT [XGTACX_site196] | 9.47
34 | CATTCCTATTATTATACACACAAATTAAGAATTCAA [CACACA_site787] | 9.51
35 | ATGTCATAAAAACATATACACACTTGAAATATAAAA [CACACA_site2329] | 9.86
36 | ATAAATATTGCGTGCACACACATAATATTTATATAT [CACACA_site7136] | 9.95
37 | TATAATATATTCATGTGTACATATATTTCGAACATA [XGTACX_site1754] | 9.66
38 | CGAAAAATATGTATGAGTACTTATATTTAAACTATA [XGTACX_site1911] | 9.57
39 | AAAAAAAAAAAAAAAACACACAAACGCTTTTTTTTT [CACACA_site4545] | 9.71
40 | GGATAAGAGGCATATACACACAATTTAAAAAAATAA [CACACA_site4657] | 9.82
41 | ATTTTTTTGTTAATTTGTACATAAAATTTTATTTTA [XGTACX_site7007] | 9.65
42 | ATATTTATTTTATAAAGTACTAAAAAATATATTATA [XGTACX_site8522] | 9.19
43 | TTACAAATAATTTGTTGTACGCTTTTTTTCTTTTTT [XGTACX_site7199] | 9.62
44 | TATATATATATATATGTGCGCATTACTTTAAGAATA | 9.66
45 | GTTAAAAAAAGGAGAGATCTCACACAAATATATATA [GTGCAC_negctrl_site117] | 9.65
46 | AATATATATGAAAAAAGTACTCAAGGAATAAAAAAA [XGTACX_site7720] | 9.8

Row | Sequence | gcPBM binding intensity (ln)
47 | CATAAATACTATATATGTACGTAATTTTTAAAACAT [XGTACX_site7710] | 9.71
48 | ATGATAAATATAAGTTGTACATATATCTATGTGCAT [XGTACX_site6010] | 9.63
49 | CATTTAATAATAACAAGTACACAAAGATGTATAACA [XGTACX_site8315] | 9.91
50 | GGGTGCCAAATTAGCACACACATATATACCTGAATT [CACACA_site5551] | 10
51 | GTAGGCATTAAAAAATGTACAAAATATTATGAATTG [XGTACX_site1615] | 9.64
52 | TTTTTTTTTATTTGTTGTACGAGGTTTTAAAATTTT [XGTACX_site106] | 9.65
53 | ACAATATCTAGATACACACACATATCTCTCAATCTA [CACACA_site656] | 9.98
54 | TATAATATTCTATATGCATGTACACCATTCTTTATT [TGCATGCA_site688] | 9.89
55 | TATTGTTATCTTTTATGTACTTAAAAAAATAAATTT [XGTACX_site4233] | 9.37
56 | AAAAAGGTTATTGGTACACACATATGTATATAAATA [CACACA_site6402] | 9.94
57 | TAATAAAACATATATACACACATTATATATACATAT [CACACA_site8495] | 9.97
58 | TCTGTTCTTTTTTAATGTACAAGAAATATAAAATTC [XGTACX_site3600] | 9.21
59 | AATTTTTAGTATATAACATAAAATAAAATAAAATAA [GTGCAC_negctrl_site696] | 9.59
60 | TAATAAATAATGGTTACACACAAAATATAAAACTTA [CACACA_site3544] | 9.86
61 | AATTATAAATCTTGCACACAAAAAAAATAATAAAAA [CACACA_site2434] | 9.89
62 | TAAACACATATATAGACATGCAACTAGTTTTTATAA [TGCATGCA_site474] | 9.62
63 | AAATCTTTGTGTGGATGTACTTTTATAAAAAAGAAT [XGTACX_site3830] | 9.57
64 | AAAAAGGAAATAATAACACACATTAATAATTATAAA [CACACA_site3401] | 9.85
65 | TAAAAAGTTATATTCACACACATACACATATAAATA [CACACA_site6398] | 10.1
66 | TTATTTTTTTTTTTTTGTACACAATTTGACACATTA [XGTACX_site7983] | 9.76
67 | TTTATTTAATTATGTTGTACATGTAGGATTTATTTT [XGTACX_site7078] | 9.69
68 | TTTTTTTTATTTTGTTGTACGCTTATTTGTATATAT [XGTACX_site7325] | 9.75
69 | TTTATGTGTTATAAATGTACATAATATAATTCGTAT [XGTACX_site3845] | 9.58

Row | Sequence | gcPBM binding intensity (ln)
70 | TTATCTATAAATACGAGTACGCAAAATCATATAATA [XGTACX_site2447] | 9.58
71 | TTTTAATATTAAGATGTCTTTTACGTTTATTTTGTA [CACACA_negctrl_site765] | 9.75
72 | ATTTACGCGCTTATTACACACACATACAAATAAGGA [CACACA_site9157] | 10
73 | TAATTATTTGCCCTTACTCTGAACATTCGGAATTTA [CACACA_negctrl_site1278] | 9.46
74 | ATCTGCATATATATATGTACATATTTTAGAATGCAC [XGTACX_site708] | 9.63
75 | TTCTTTTTAAATTACACACACATATAAATATGTATA [CACACA_site7618] | 9.94
76 | TTTTTATAAAATTTTATGAGCTCGGAAAAAATAAAC [GTGCAC_negctrl_site637] | 9.48
77 | TATATATAATATATATATATGGAAATTCTTTTAAAT [XGTACX_negctrl_site50] | 9.32
78 | TGTATTATATGTAAATGTACATTTAATATTTTATAT [XGTACX_site4461] | 9.71
79 | GTATGAAATTATAATAGTACATATAAATAAAAAAAA [XGTACX_site8955] | 9.85
80 | CCACAAGTATATAGTAGTACAATTTTTTTCTCTTTA [XGTACX_site4403] | 9.44
81 | ATATAAGGATAACCTAGTACATATTATATGAAACAA [XGTACX_site8459] | 9.88
82 | TACGGTAAATAGTGTTGTACGATACAATTGTTTTCT [XGTACX_site8118] | 9.75
83 | AAGGGGAAAAAAAAAAGTACACAAACATAGGATAAT [XGTACX_site377] | 9.74
84 | CAATTAAAATGCAACGGTACACATAAAAAAAATAAA [XGTACX_site6216] | 9.81
85 | AAAATAAATAAATAAATATATATATATATATATATA [TGCATGCA_negctrl_site558] | 9.49
86 | TCTTTGTATATATGTTCATTTGTAATATATATTCAT [TGCATGCA_negctrl_site467] | 9.75
87 | TATTTGTGAAGAAATTGTACTCATATCTACATTTAT [XGTACX_site2245] | 9.69
88 | ATAATAATATAAAAATGTACATATATTTATAATTGT [XGTACX_site3429] | 9.73
89 | ATTTTATTTTTTCACACACACATATATATATATATA [CACACA_site3334] | 10.1
